Measurements reported in the supplement of paper PMC3334620.
Over roughly 33,000 sequences, “E-score (-0.5 to 0.5)” has its median near -0.013; the highest 2% begin near 0.3. This is one part of the list.

Molecular target: T1, Msn1 (UniProt P22148)
T1 sequence: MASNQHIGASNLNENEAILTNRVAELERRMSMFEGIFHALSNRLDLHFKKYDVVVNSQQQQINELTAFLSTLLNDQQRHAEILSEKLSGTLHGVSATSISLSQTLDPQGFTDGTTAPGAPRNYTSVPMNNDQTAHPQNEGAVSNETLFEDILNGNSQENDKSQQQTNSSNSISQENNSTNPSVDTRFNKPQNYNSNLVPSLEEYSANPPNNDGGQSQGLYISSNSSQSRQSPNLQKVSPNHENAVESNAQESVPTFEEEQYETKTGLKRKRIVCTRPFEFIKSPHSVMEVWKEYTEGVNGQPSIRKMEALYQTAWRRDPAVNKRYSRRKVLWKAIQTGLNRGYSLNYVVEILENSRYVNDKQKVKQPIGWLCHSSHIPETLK
Assay: PBM E-score (8-mer binding enrichment) (E-score (-0.5 to 0.5)); higher = stronger / more preferred TF binding; most listed sequences are background and not binding sites
Settings: protein concentration: 200 nM; construct: GST-full length
Procedure, shortened: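 Yeast transcription factors, full-length or as DNA-binding domains, were expressed with a GST tag using PURExpress in vitro transcription/translation. At about 100-200 nM they were applied to universal all-10-mer Agilent arrays, double-stranded by primer extension on fresh or once-stripped slides. Fluorescent anti-GST detected bound protein, and masliner normalised the scans. E-scores for ungapped eight-base words, pooled with reverse complements, came from the Universal PBM Analysis Suite.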

| Sequence | PBM E-score |
| --- | --- |
| GAGCCTCA | -0.291 |
| GCCGGAAA | 0.0973 |
| CTAAGGAG | -0.247 |
| CCCGTATC | -0.0306 |
| TAGTCACA | 0.0343 |
| GCTCCAGC | -0.0883 |
| GGGAGCAA | -0.203 |
| AGTCGTAA | 0.0807 |
| GCCACGGC | -0.0514 |
| GAAGCTCC | -0.11 |
| CATACAGC | -0.124 |
| CCCAAGCA | -0.0213 |
| GGGTACAC | 0.0109 |
| GCGCGTGA | -0.0856 |
| AAAACCAC | 0.211 |
| GACGCTTA | -0.142 |
| ACACTAGG | 0.0326 |
| CTCCATAC | -0.119 |
| GGCACGGA | 0.0552 |
| CTCTTGTA | 0.035 |
| CCTCTCTA | -0.264 |
| GGATAATA | 0.124 |
| GTCGCAAC | 0.0671 |
| CTAACATA | 0.0457 |
| AAAGATTC | 0.173 |

| Sequence | PBM E-score |
| --- | --- |
| AAGGTGAC | 0.249 |
| GTCCTTTA | 0.225 |
| CGCGCCAG | -0.00508 |
| GGCGGGAC | 0.0593 |
| ACCTCGTC | -0.0304 |
| ACGTAGAT | 0.0466 |
| AGGACCAC | -0.124 |
| GATTCCAC | 0.1 |
| GGCTTCGA | -0.0792 |
| CACAAAGA | 0.164 |
| GGTGGAAA | -0.0856 |
| GTGCCTCA | -0.167 |
| AAGGACAC | 0.449 |
| ACTGTCGC | -0.134 |
| GGTAAAAA | 0.0992 |
| TCTGATAA | 0.222 |
| TATCCAAA | 0.186 |
| GCTAAAGA | 0.133 |
| CACGCGGC | -0.0237 |
| CTCTGTTC | 0.016 |
| CTAGAAAA | 0.159 |
| CGATGGGC | -0.205 |
| CAATACTC | 0.153 |
| ATGAGCTC | -0.05 |
| AAGACACA | 0.169 |

| Sequence | PBM E-score |
| --- | --- |
| GTCCCGAA | 0.22 |
| ACCGGGTA | -0.109 |
| CAGCATGA | -0.0698 |
| AAATATCT | 0.134 |
| ATATCAAC | 0.0182 |
| ATATATAT | 0.255 |
| GCTCACAA | 0.00698 |
| CGTCCAAC | 0.0843 |
| CTAGGCTC | -0.18 |
| ACCGCGTG | -0.118 |
| CCATCATC | 0.0399 |
| AACGCTAG | -0.0987 |
| ACGTCTCT | 0.156 |
| CGATGTCA | 0.0775 |
| TCCAGGCA | 0.0282 |
| AGAACGAG | 0.043 |
| CTTTTAGA | 0.0261 |
| CCAAGTAA | 0.128 |
| GTGCCCAC | -0.215 |
| CCCCCGCC | -0.406 |
| GACACAGC | 0.249 |
| GACGAGTA | 0.0768 |
| AGAGTTAT | -0.0142 |
| GCTTTGCA | -0.233 |
| CTGGCGCA | -0.226 |

| Sequence | PBM E-score |
| --- | --- |
| CTTACGGC | -0.135 |
| AACCTTTA | -0.194 |
| CCGTCCTC | -0.103 |
| AAACCGGA | 0.14 |
| AACACCCC | -0.112 |
| CACCCGCC | -0.135 |
| TAGGAGGA | -0.172 |
| CCCTGGCA | -0.292 |
| ACCTCAAA | 0.00339 |
| GGAACTAC | -0.152 |
| CGGGAAGC | -0.135 |
| GAAAAACA | 0.0496 |
| AGGGTGGA | -0.252 |
| ACTTACGA | 0.212 |
| CAGTGTAG | -0.0323 |
| ATAACCTC | 0.15 |
| ATAGTATG | 0.263 |
| ATCCCCAA | -0.044 |
| ATAGAAAT | 0.205 |
| CGACTATC | -0.0263 |
| CCCTCCGA | -0.0124 |
| AGTGATTA | 0.128 |
| AATCTGAC | 0.127 |
| CATACTTA | 0.0828 |
| GGCTCTCA | -0.155 |

| Sequence | PBM E-score |
| --- | --- |
| TAGGGCGA | -0.203 |
| CAAGTCTA | -0.0671 |
| TAATGAGA | 0.232 |
| CCTGGTCC | -0.173 |
| CCTATTCG | 0.00952 |
| CGCGCAGC | -0.156 |
| CTCTGATA | 0.112 |
| ACTCGGTA | 0.0367 |
| AAGATCAG | -0.225 |
| TAGCCCTA | -0.081 |
| CTGTGTCC | 0.439 |
| CTTTTCTC | -0.0403 |
| ACTCTAGC | -0.209 |
| GAGCACGC | -0.229 |
| AAAGTCGA | 0.0543 |
| ACCGTCTA | -0.11 |
| AACACGCT | -0.0498 |
| AATCATAC | 0.0636 |
| ATTCCATA | 0.111 |
| CGCCCGAA | 0.0353 |
| AAACTCAG | -0.017 |
| CCACCATC | -0.252 |
| CCTCAGTC | -0.176 |
| CTTCTTAA | -0.0177 |
| AAATGCTC | 0.0767 |

| Sequence | PBM E-score |
| --- | --- |
| AGCAATTC | 0.0543 |
| AGGGCGCG | -0.186 |
| GATGAAAA | 0.123 |
| CTTCAACA | 0.0766 |
| AGGAGCCC | -0.254 |
| AAGTCGAC | 0.196 |
| AACGGTCG | -0.0226 |
| CCTCGGCG | -0.0196 |
| TGGGCTAA | 0.0373 |
| AAAAAAAG | 0.167 |
| AAAACACA | 0.0509 |
| CACCGCGA | 0.0987 |
| ATGCAGCA | -0.0766 |
| CAACGGTG | -0.181 |
| AAAATTTC | -0.0273 |
| ACGTCAAT | -0.00977 |
| TGAATTAA | 0.134 |
| CCTTCACC | -0.233 |
| AGATTGGG | 0.102 |
| ACGGGGTG | -0.209 |
| CAACTATA | 0.0554 |
| ACCGTCCA | -0.0179 |
| AAAACGCT | 0.0419 |
| AGGAATTC | -0.0844 |
| ACGAGCCG | 0.0863 |

| Sequence | PBM E-score |
| --- | --- |
| CGACGGCC | 0.0509 |
| ACAAGCTA | -0.102 |
| GATCGCCC | -0.24 |
| ACTAGGTC | 0.0539 |
| TCTTATCA | 0.243 |
| AATGTTTA | -0.0301 |
| CGATTTAC | -0.00545 |
| ATTACCCA | 0.098 |
| CGTACAAC | 0.093 |
| ATGCACGC | -0.143 |
| CAAGAAAC | 0.081 |
| ACATCAGT | 0.0444 |
| CGGTGTTA | -0.0399 |
| ATGCGGGC | -0.229 |
| CCCCCCGA | -0.272 |
| ATGGTCCG | 0.125 |
| GTCCTGCA | 0.239 |
| ACATTTCG | 0.241 |
| GACCTATC | 0.0973 |
| GCCCTAGA | -0.118 |
| CATGAGCG | -0.208 |
| AATAAACT | 0.025 |
